Assay results as given in PubChem BioAssay AID686979 (National Center for Advancing Translational Sciences (NCATS), 2013).
“And” between values parts separate entries of the source, which are not always exact repeats. Equal entries are not always repeated. Screen size: about 420,000 compounds; about 50,000 (12%) were called active. Inconclusive results, whose numbers are uncertain, are shown with a selection of clear calls. Calls follow the shape of the dose curve; as a rule, active = well fitted inhibition curve with a large enough effect; inconclusive = small, poorly fitted or top-dose-only effect; inactive = flat fitted curve, though single readings scatter. No potency is given beside an inconclusive call; the fits are too rough.

Assay: qHTS for Inhibitors of human tyrosyl-DNA phosphodiesterase 1 (TDP1): qHTS in cells in presence of CPT; also: nearly all actives have a fitted effect of over 55% in size
Details: chicken DT40 Tdp1-/-;hTDP1 cells + 20 nM CPT, ATP luminescence, 48 h; activity change, negative = growth inhibition: at 46.2 µM (top of the series) unless noted
Summary of the method: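 Chicken DT40 Tdp1-/- cells stably complemented with human TDP1 were seeded at 400 cells/well in medium containing 20 nM camptothecin, exposed to pin-transferred compounds, and grown at 37 °C for at least 48 hr. Viability was read as ATP luminescence.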
% is scaled to controls: 0 for no effect and ±100 for the full control effect; potency is read from the fitted curve at half-maximal effect; tags tell the direction and shape of the fitted curve.

Structure (SMILES)	Potency	activity change, negative = growth inhibition
CC(C)(C)OC(=O)N1Cc2cc3ccccc3nc2C1	inconclusive [inhibitor, single point]	–
Nc1nc(CCl)nc(N(c2ccccc2)c2ccccc2)n1	inconclusive [inhibitor, single point]	–
CCN(C(=O)c1ccc(C(=O)N(CC)c2ccccc2C)cc1)c1ccccc1C	inconclusive [inhibitor, single point]	–
CCOc1ccc(C(NC(=O)CC)c2c(O)ccc3ccccc23)cc1 (stereo unspecified)	inactive	–
CC1CCCCC1NCC(=O)Nc1ccccc1C(=O)Nc1ccccc1 (stereo unspecified)	inconclusive [inhibitor, single point]	–
C=Cc1ccc(CN2C(=O)N(c3ccc(C)c(C)c3)S(=O)(=O)c3ccccc32)cc1	inconclusive [inhibitor, partial curve, poor fit]	–
CCOC(=O)C1CCN(Cc2ccc(F)c(Br)c2)CC1	inactive	–
CN(CC(=O)Nc1ccc(Cl)c(Cl)c1)Cc1nnc(-c2ccc(F)cc2)o1	inconclusive [inhibitor, single point]	–
O=C1c2ccccc2C(=O)N1CCC(c1ccc(F)cc1)c1ccco1 (stereo unspecified)	inconclusive [inhibitor, single point]	–
COc1ccc(N(C(=O)c2ccco2)C(C(=O)NC2CCCC2)c2ccc(N(C)C)cc2)cc1 (stereo unspecified)	inconclusive [inhibitor, partial curve]	–
CCOC(=O)Cc1csc(NC(=O)CSc2nc3cccnc3n2CC)n1	inconclusive [inhibitor, single point]	–
CCOC(=O)C1CCCN(C(=O)c2ccc(-c3ccccc3Cl)o2)C1 (stereo unspecified)	inconclusive [inhibitor, single point]	–
O=C(Cn1cc(SCc2ccccc2Cl)c2ccccc21)N1CCOCC1	inconclusive [inhibitor, single point]	–
CC(=O)Nc1ccc(S(=O)(=O)N2CCN(C(=O)N3CCOCC3)CC2)cc1	inactive	–
CC1C(=O)N(Cc2cn(CCC3OCCCO3)nn2)CCS(=O)(=O)N1Cc1ccc(-c2ccc(F)nc2)cc1 (stereo unspecified)	inconclusive [inhibitor, single point]	–
CC(C)CCN1C(=O)CC(NNC(=O)c2ccc(S(=O)(=O)N3CCCC3)cc2)C1=O (stereo unspecified)	inactive	–
COc1ccccc1NC(=O)/C=C/c1ccc2c(c1)OCO2	active: 16.4 µM	–
CCc1nc(C)ccc1OC(=O)C12CC3CC(CC(C3)C1)C2	inconclusive [inhibitor, single point]	–
Brc1cccc(-c2nnn3c2nc(NC2CCCCC2)c2ccccc23)c1	inactive	–
COc1ccc(OC2CCN(S(=O)(=O)c3ccc(OC)c(OC)c3)CC2)cc1	inconclusive [inhibitor, single point]	–
CCOC(=O)c1c(-c2cccs2)csc1NC(C)=O	inactive	–
O=C(COc1ccccc1F)Nc1ccc(S(=O)(=O)N2CCCC2)cc1	inconclusive [inhibitor, partial curve]	–
CC1CCCCN1CCNC(=O)c1ccc(Cn2c(SCc3ccccc3)nc3cccnc32)cc1 (stereo unspecified)	inconclusive [inhibitor, single point]	–
C#Cc1ccc([C@@H]2C=C(C(=O)OCC=C)O[C@H](OCC)[C@H]2CCCO)cc1	inconclusive [inhibitor, partial curve]	–

Structure (SMILES)	Potency	activity change, negative = growth inhibition
c1ccc(-n2ncc3c(N4CCC5(CC4)OCCO5)ncnc32)cc1	inconclusive [inhibitor, partial curve, poor fit]	–
NC(Cc1ccc(C(F)(F)F)cc1)c1csc(Nc2cnccn2)n1 (stereo unspecified)	active: 6.51 µM	–
CCOc1ccc(C2C=C(c3ccccc3)Nc3nnnn32)cc1 (stereo unspecified)	inactive	–
CC(C)NCCCOc1ccc(Cl)cc1Br	active: 18.4 µM	–
Cc1ccc(/C=C/c2onc(C)c2S(=O)(=O)N2CCC(C(=O)N3CCN(C)CC3)CC2)cc1	inconclusive [inhibitor, single point]	–
COc1ccc(NC(=O)CN(C)CC(=O)Nc2cccc(F)c2)cc1S(=O)(=O)N1CCCCC1	inconclusive [inhibitor, single point]	–
CCS(=O)(=O)c1ncc(Cl)c(C(=O)Nc2ccc(S(=O)(=O)N(C)c3ccccc3)cc2)n1	active: 580 nM and active: 731 nM	–
Cc1nn(-c2ccc(N3CCOCC3)nn2)c(C)c1CCC(=O)NCc1ccc(Cl)cc1	inconclusive [inhibitor, single point]	–
COc1ccc(C2=NOC(C)(c3nnc(-c4ccccc4)o3)C2)cc1 (stereo unspecified)	inactive	–
CC(=O)N1CCN(CCS(=O)(=O)c2cc(Cl)ccc2Cl)CC1	inconclusive [inhibitor, single point]	–
Cc1c(NC(=O)c2ccc(CC(C)C)o2)c(=O)n(-c2ccccc2)n1C	inactive	–
O=C(Nc1ccc2oc(-c3ccc4ccccc4c3)nc2c1)c1cccs1	inconclusive [inhibitor, single point]	–
O=c1cc(Br)c(O)c(Br)cc1Br	inconclusive [inhibitor, single point]	–
COc1cc(C(=O)N2C[C@H]3CON(C)[C@H]3C[C@H]2c2ccc(N3CCCCC3)cc2)cc(OC)c1OC	inactive	–
Cc1ccc(CC(=O)Nc2ncc([N+](=O)[O-])s2)cc1	–	inconclusive: -34.9% [inhibitor]
COc1ccc(C2CC(c3cccs3)=Nc3ccccc3S2)cc1OC (stereo unspecified)	inconclusive [inhibitor, single point]	–
O=C(Cn1c(=O)n(-c2ccccc2)c(=O)n1CC(=O)N1CCCCC1)N1CCCCC1	inactive	–
C/C(=N\NC(=O)COc1ccc(C(C)(C)C)cc1)c1ccc(-n2ccnc2)cc1	inconclusive [inhibitor, single point]	–
O=C(NCc1ccccc1Cl)C1CCCN1C(=O)NC1CCCCC1 (stereo unspecified)	inactive	–
CCOC(=O)c1c(C)[nH]c(C(=O)CSc2nnc(-c3cccs3)n2Cc2ccccc2)c1C	inconclusive [inhibitor, single point]	–
O=C(NCC(=O)N1CCC(Cc2ccccc2)CC1)c1ccc(Cl)cc1	active: 16.4 µM	–
C=CCOc1ccc2ccccc2c1CNc1ncn[nH]1	inactive	–
CCCOc1ccc(CN(CCO)CCO)cc1[N+](=O)[O-]	inactive	–
O=C(Cc1ccc(Cl)cc1)Nc1ccc(N2CCN(C(=O)c3ccco3)CC2)cc1	inconclusive [inhibitor, single point]	–

Structure (SMILES)	Potency	activity change, negative = growth inhibition
Cc1cccc(C)c1Nc1sc(C(=O)c2ccccc2)c(N)c1S(=O)(=O)c1ccccc1	active: 4.61 µM	–
COc1ccc(NS(=O)(=O)c2cccc(C(=O)NCC(c3ccccc3)N(C)C)c2)cc1 (stereo unspecified)	inconclusive [inhibitor, single point]	–
CC(C)C(NCc1c(Cl)cccc1Cl)C(=O)O (stereo unspecified)	inactive	–
CCN(CC)Cc1c(O)ccc2c(=O)c(-c3ccccc3)coc12	active: 9.2 µM	–
Cc1onc(-c2ccccc2Cl)c1C(=O)Nc1nnc(C2CCCCC2)s1	inconclusive [inhibitor, single point]	–
Cc1noc(C)c1CSCC(=O)N1CCN(c2ccc(F)cc2)CC1	inconclusive [inhibitor, single point]	–
Nc1ncnc2c1ncn2[C@@H]1O[C@H](CNCc2ccc(-c3cc(C(F)(F)F)ccc3Cl)o2)[C@@H](O)[C@H]1O	inconclusive [inhibitor, single point]	–
O=C(Nc1c(-c2ccc(Cl)cc2)[nH][nH]c1=O)c1ccccn1	inactive	–
Cc1cc(C)cc(S(=O)(=O)Nc2cccc(-c3ccc(N4CCOCC4)nn3)c2)c1	inconclusive [inhibitor, single point]	–
CC(=O)N1CCOC12CCN(Cc1ccccc1)CC2	inactive	–
CCN1CCN(c2nc(Nc3ccccc3F)nc(N)c2[N+](=O)[O-])CC1	inconclusive [inhibitor, full curve, poor fit]	–
COc1ccc(C(=O)OCC(=O)c2cc(OC)ccc2OC)c(OC)c1	inconclusive [inhibitor, single point]	–
Cc1nn(-c2ccc(Cl)cn2)c2c1C(=O)CC(C)(C)C2Br (stereo unspecified)	inconclusive [inhibitor, single point]	–
COc1ccc(-c2nc(-c3ccccc3)c(-c3cc([N+](=O)[O-])ccc3C)[nH]2)cc1O	inconclusive [inhibitor, single point]	–
Oc1[nH]c2ccccc2c1C1=NCCCCC1	inactive	–
COc1ccc(Cn2c(C(=O)O)c(CNCCc3cccs3)c3ccc(C)cc32)cc1	inconclusive [inhibitor, single point]	–
CCOC(=O)c1ccc(/[N+]([O-])=C/c2ccccc2)cc1	active: 13 µM	–
NCc1ccccc1CC(=O)N[C@@H]1C(=O)N2C(C(=O)O)=C(CSc3nnnn3CC(=O)O)CS[C@H]12	inactive	–
NC(CCc1ccccc1)c1csc(NC(=O)NCCc2ccccc2)n1 (stereo unspecified)	active: 23.1 µM	–
Cc1cc(C)nc(NC(=O)C2c3ccccc3Oc3ccccc32)n1	inactive	–
Nc1ccc2oc(-c3ccccn3)nc2c1	–	inconclusive: -30.9% [inhibitor]
CC(=O)Nc1ccc(NC(=O)c2ccc(NS(=O)(=O)c3cc(C(C)(C)C)ccc3C)cc2)cc1	inactive	–
Cc1ccc(C(=O)C(C)OC(=O)C2CCN(c3ccc(C(F)(F)F)cn3)CC2)cc1 (stereo unspecified)	inconclusive [inhibitor, single point]	–
